Data on 86 sequences can be found in the supplement of paper PMC3334620.

The full ranking holds about 33,000 sequences; the median of “E-score (-0.5 to 0.5)” is about -0.056, and the highest 2% start at about 0.38. The list shows a part of the results.

The test deals with Stb4 (UniProt P50104). As to the kind of experiment: PBM E-score (8-mer binding enrichment) (E-score (-0.5 to 0.5)); higher = stronger / more preferred TF binding; most listed sequences are background and not binding sites. The settings on record: protein concentration: 200 nM; construct: GST-DNA-binding domain. As for the experimental part: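 Universal 'all 10-mer' protein binding microarrays (Agilent AMADID 015681) probed with GST-tagged S. cerevisiae TFs (full-length or DBD) made by in vitro transcription/translation (PURExpress), about 100-200 nM. Bound TF was detected with fluorescent anti-GST. Each ungapped 8-mer (which stands for itself and its reverse complement) is scored by the PBM enrichment score (E-score), a modified Wilcoxon-Mann-Whitney statistic from -0.5 to +0.5, computed with the Universal PBM Analysis Suite. Scale: above 0.35 generally sequence-specific binding.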
As to CAGACTAA, the “PBM E-score” value was -0.0911.

As to ACGCAATG, the “PBM E-score” value is -0.294.

Take CGGCCATA: the “PBM E-score” value worked out at 0.00203.

CGCCATAG: the “PBM E-score” value is -0.138.

Regarding ATAGCACC, the “PBM E-score” value is -0.0552.

Regarding CAGCATAG, the “PBM E-score” value is -0.101.

For the sequence CAGAGTCG, the “PBM E-score” value was -0.0973.

On to AGGTCTTA, for which the “PBM E-score” value was -0.141.

For ATGTAAAG, the “PBM E-score” value was -0.162.

For the sequence GAGACCTC, the “PBM E-score” value was found to be 0.0123.

Turning to CACGGTGA, the “PBM E-score” value was -0.147.

For the sequence CTCGGCGC, the “PBM E-score” value was found to be 0.383.

On to GTACGTAC, for which the “PBM E-score” value was 0.115.

Turning to GCAAAACA, the “PBM E-score” value is -0.0269.

For GTCATTCA, the “PBM E-score” value is -0.205.

On to AATACTAT, for which the “PBM E-score” value was -0.125.

In the case of CCCTCGAC, the “PBM E-score” value is -0.115.

Take CGCGGGGA: the “PBM E-score” value came out at 0.214.

Turning to ACCCGTAA, the “PBM E-score” value was 0.222.

Take CGTCGGCC: the “PBM E-score” value worked out at 0.245.

Regarding ATGACAAG, the “PBM E-score” value was -0.0418.

On to GACTTGGC, for which the “PBM E-score” value is -0.207.

With GAGCCTTA, the “PBM E-score” value was -0.057.

ATAGAATA: the “PBM E-score” value was -0.0868.

For the sequence AAGGAGGC, the “PBM E-score” value is -0.239.

On to CAAGACCA, for which the “PBM E-score” value is -0.153.

Regarding CCCCCTCG, the “PBM E-score” value was -0.139.

For GTCTGCTA, the “PBM E-score” value is -0.0233.

On to ATTATGGG, for which the “PBM E-score” value is -0.0331.

Consider ACTTCTGC, for which the “PBM E-score” value was 0.00201.

Turning to CATGACGC, the “PBM E-score” value was -0.195.

Regarding AAGATATA, the “PBM E-score” value was -0.0235.

Consider ATCTATCA, for which the “PBM E-score” value was -0.0983.

For the sequence CTGCAACA, the “PBM E-score” value was determined as 0.0514.

CCTGTGTA: the “PBM E-score” value was -0.263.

For AGGGTGTC, the “PBM E-score” value is -0.0528.

As to CAGGAGAG, the “PBM E-score” value was -0.273.

With CCAAGAGG, the “PBM E-score” value was -0.244.

Turning to AGAGCAAA, the “PBM E-score” value is -0.185.

For AGAGATAC, the “PBM E-score” value was -0.121.

Regarding CAACGAAG, the “PBM E-score” value is -0.176.

ATATGTTG: the “PBM E-score” value is -0.127.

Take AAGGCCAG: the “PBM E-score” value is -0.135.

Consider AGCGTACT, for which the “PBM E-score” value is -0.135.

Turning to CTACCAAG, the “PBM E-score” value is -0.281.

Consider GCAGTACA, for which the “PBM E-score” value is -0.0615.

TACTTGAA: the “PBM E-score” value is -0.229.

For the sequence AGACCAAT, the “PBM E-score” value is -0.169.

For AGGGCGGG, the “PBM E-score” value came out at 0.158.

Regarding GTGAAGAA, the “PBM E-score” value is -0.139.

ATATCTCC: the “PBM E-score” value turned out to be 0.169.

Consider ATGGACAG, for which the “PBM E-score” value was -0.197.

With AGGTGCAA, the “PBM E-score” value is -0.144.

Consider GTCGAGAA, for which the “PBM E-score” value is -0.277.

In the case of CCCCAAAG, the “PBM E-score” value was -0.319.

GGAAATCA: the “PBM E-score” value was found to be 0.0529.

Consider ATCCGCTC, for which the “PBM E-score” value is 0.313.

For the sequence GTCGCGTA, the “PBM E-score” value was -0.167.

Consider AAACGCGA, for which the “PBM E-score” value is 0.0221.

For ATCGCCAT, the “PBM E-score” value was -0.134.

For AAGCGAGT, the “PBM E-score” value was found to be 0.183.

For ACTTATAG, the “PBM E-score” value is -0.122.

ATAAAGAC: the “PBM E-score” value is -0.138.

As for ATTAAAAG, the “PBM E-score” value is 0.0108.

Consider GGATTACA, for which the “PBM E-score” value was -0.12.

For the sequence ACACACAC, the “PBM E-score” value is -0.191.

Turning to CGAGAATA, the “PBM E-score” value stood at 0.0419.

On to CGAAGTAC, for which the “PBM E-score” value was determined as 0.228.

As for CATCTTGG, the “PBM E-score” value was -0.141.

For CATCGGCA, the “PBM E-score” value is 0.376.

Turning to AGTGATAT, the “PBM E-score” value was 0.0337.

As to TGAGAACA, the “PBM E-score” value is -0.212.

Consider GAAGGGGC, for which the “PBM E-score” value was -0.126.

With AACATGTC, the “PBM E-score” value is -0.06.

On to GACAGACA, for which the “PBM E-score” value was found to be 0.103.

On to ATTATCTG, for which the “PBM E-score” value is -0.00421.

For the sequence CTGGAGGC, the “PBM E-score” value is -0.174.

On to ATTGCGGC, for which the “PBM E-score” value was found to be 0.0484.

For the sequence AGTTTATC, the “PBM E-score” value is 0.0999.

For CTTTGCCA, the “PBM E-score” value was -0.0706.

CCATCGTA: the “PBM E-score” value is -0.186.

Consider ATTCGGGA, for which the “PBM E-score” value came out at 0.415.

In the case of AATTCTTA, the “PBM E-score” value is -0.0318.

CCCGGGAA: the “PBM E-score” value is 0.355.

With ACCGCAAA, the “PBM E-score” value came out at 0.0423.

With AATAGAGG, the “PBM E-score” value turned out to be 0.00203.
